According to article PMC12666567:
These are yes or no findings as the source states them, for the method shown. In cells and extracts the contact can be indirect. Some binding calls cover weakened binding; strength is not graded here. Sequences can lack the tags named with a protein.

By UniProt entry, the sequences of proteins in these tests, tags left out.
UniProt Q9UBN7: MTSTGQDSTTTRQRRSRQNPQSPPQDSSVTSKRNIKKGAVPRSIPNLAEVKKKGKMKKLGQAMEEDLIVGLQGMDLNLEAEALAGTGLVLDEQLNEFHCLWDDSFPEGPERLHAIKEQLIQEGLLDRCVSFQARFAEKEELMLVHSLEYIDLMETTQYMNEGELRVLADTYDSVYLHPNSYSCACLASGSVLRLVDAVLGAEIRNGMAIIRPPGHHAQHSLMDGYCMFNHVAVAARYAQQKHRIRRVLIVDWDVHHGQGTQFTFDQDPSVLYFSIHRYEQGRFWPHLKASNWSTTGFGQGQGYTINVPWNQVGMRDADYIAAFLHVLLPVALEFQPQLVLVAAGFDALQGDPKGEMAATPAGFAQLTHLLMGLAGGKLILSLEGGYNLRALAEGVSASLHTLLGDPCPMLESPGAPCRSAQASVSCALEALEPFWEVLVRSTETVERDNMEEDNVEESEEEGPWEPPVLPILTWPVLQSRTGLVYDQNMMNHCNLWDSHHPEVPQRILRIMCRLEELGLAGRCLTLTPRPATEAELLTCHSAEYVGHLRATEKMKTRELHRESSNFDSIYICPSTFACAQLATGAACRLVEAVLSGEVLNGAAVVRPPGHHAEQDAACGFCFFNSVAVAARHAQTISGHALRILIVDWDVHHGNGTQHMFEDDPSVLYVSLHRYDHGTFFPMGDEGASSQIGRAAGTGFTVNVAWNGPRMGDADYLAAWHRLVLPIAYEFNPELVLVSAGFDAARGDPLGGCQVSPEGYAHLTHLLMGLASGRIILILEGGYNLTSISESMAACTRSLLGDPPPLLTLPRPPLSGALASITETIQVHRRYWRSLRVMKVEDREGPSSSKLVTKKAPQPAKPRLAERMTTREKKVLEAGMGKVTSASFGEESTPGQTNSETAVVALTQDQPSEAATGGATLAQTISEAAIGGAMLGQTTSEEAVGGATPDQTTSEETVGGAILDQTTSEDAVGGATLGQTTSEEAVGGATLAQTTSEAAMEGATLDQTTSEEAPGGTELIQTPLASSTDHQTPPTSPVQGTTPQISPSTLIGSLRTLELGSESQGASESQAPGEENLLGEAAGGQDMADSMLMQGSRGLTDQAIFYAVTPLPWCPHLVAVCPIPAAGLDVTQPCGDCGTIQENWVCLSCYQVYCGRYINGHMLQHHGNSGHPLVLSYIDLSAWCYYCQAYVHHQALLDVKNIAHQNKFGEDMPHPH

Experiments:
[1] = molecular target: Flag-tagged histone deacetylase 6 (HDAC6) (human) (UniProt Q9UBN7); experiment: co-IP; HEK293T cells co-transfected with tagged plasmids; lysed in IP buffer (20 mM Tris, pH 7.5, 150 mM NaCl, 1% Triton X-100) with protease/deacetylase/phosphatase inhibitors; anti-tag antibody (FLAG, HA) at 4 °C overnight, Protein A/G magnetic beads, Western blotting; in Fig. 4C with or without co-expressed Flag-HDAC6
[2] = molecular target: HA-tagged stimulator of interferon genes (STING), full length (human), Q86WV6; experiment: as above; conditions: remark: other sources report otherwise

binding [1]	binding [2]	Binder
binds		HA-tagged TBK1 (enzyme, UniProt Q9UHD2 1-729) MQSTSNHLWLLSDILGQGATANVFRGRHKKTGDLFAIKVFNNISFLRPVDVQMREFEVLKKLNHKNIVKLFAIEEETTTRHKVLIMEFCPCGSLYTVLEEPSNAYGLPESEFLIVLRDVVGGMNHLRENGIVHRDIKPGNIMRVIGEDGQSVYKLTDFGAARELEDDEQFVSLYGTEEYLHPDMYERAVLRKDHQKKYGATVDLWSIGVTFYHAATGSLPFRPFEGPRRNKEVMYKIITGKPSGAISGVQKAENGPIDWSGDMPVSCSLSRGLQVLLTPVLANILEADQEKCWGFDQFFAETSDILHRMVIHVFSLQQMTAHKIYIHSYNTATIFHELVYKQTKIISSNQELIYEGRRLVLEPGRLAQHFPKTTEENPIFVVSREPLNTIGLIYEKISLPKVHPRYDLDGDASMAKAITGVVCYACRIASTLLLYQELMRKGIRWLIELIKDDYNETVHKKTEVVITLDFCIRNIEKTVKVYEKLMKINLEAAELGEISDIHTKLLRLSSSQGTIETSLQDIDSRLSPGGSLADAWAHQEGTHPKDRNVEKLQVLLNCMTEIYYQFKKDKAERRLAYNEEQIHKFDKQKLYYHATKAMTHFTDECVKKYEAFLNKSEEWIRKMLHLRKQLLSLTNQCFDIEEEVSKYQEYTNELQETLPQKMFTASSGIKHTMTPIYPSSNTLVEMTLGMKKLKEEMEGVVKELAENNHILERFGSLTMDGGLRNVDCL
	binds	Myc-tagged TBK1, Q9UHD2 1-729 (enzyme) MQSTSNHLWLLSDILGQGATANVFRGRHKKTGDLFAIKVFNNISFLRPVDVQMREFEVLKKLNHKNIVKLFAIEEETTTRHKVLIMEFCPCGSLYTVLEEPSNAYGLPESEFLIVLRDVVGGMNHLRENGIVHRDIKPGNIMRVIGEDGQSVYKLTDFGAARELEDDEQFVSLYGTEEYLHPDMYERAVLRKDHQKKYGATVDLWSIGVTFYHAATGSLPFRPFEGPRRNKEVMYKIITGKPSGAISGVQKAENGPIDWSGDMPVSCSLSRGLQVLLTPVLANILEADQEKCWGFDQFFAETSDILHRMVIHVFSLQQMTAHKIYIHSYNTATIFHELVYKQTKIISSNQELIYEGRRLVLEPGRLAQHFPKTTEENPIFVVSREPLNTIGLIYEKISLPKVHPRYDLDGDASMAKAITGVVCYACRIASTLLLYQELMRKGIRWLIELIKDDYNETVHKKTEVVITLDFCIRNIEKTVKVYEKLMKINLEAAELGEISDIHTKLLRLSSSQGTIETSLQDIDSRLSPGGSLADAWAHQEGTHPKDRNVEKLQVLLNCMTEIYYQFKKDKAERRLAYNEEQIHKFDKQKLYYHATKAMTHFTDECVKKYEAFLNKSEEWIRKMLHLRKQLLSLTNQCFDIEEEVSKYQEYTNELQETLPQKMFTASSGIKHTMTPIYPSSNTLVEMTLGMKKLKEEMEGVVKELAENNHILERFGSLTMDGGLRNVDCL
